Source: the supplement of paper PMC8728848
Some of the results follow.

Assays:
Assay in all cases: glycan array binding signal (z-score within array); higher = stronger binding
Details in all cases: glycan notation: IUPAC condensed, linker removed
[1] = target: Neu5Ac(a2-3)Gal6S(b1-4)[Fuc(a1-3)]GlcNAc
How it was run: (§1)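 The binding signal is a Z-score computed within each array. Data were drawn from 3228 arrays in the Consortium for Functional Glycomics database, restricted to those with a known protein sequence. Scores were averaged over arrays of the same protein sequence at different concentrations or buffers, and over linkers, and negative values can be taken as non-binding.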

Neu5Ac(a2-3)GalNAc = target: Neu5Ac(a2-3)GalNAc
How it was run: as §1

[2] = target: Neu5Ac(a2-3)GalNAc(b1-4)GlcNAc
How it was run: as §1

[3] = target: Neu5Ac(a2-3)[GalNAc(b1-4)]Gal(b1-4)Glc
How it was run: as §1

[4] = target: Neu5Ac(a2-3)[GalNAc(b1-4)]Gal(b1-4)GlcNAc
How it was run: as §1

[5] = target: Neu5Ac(a2-3)[GalNAc(b1-4)]Gal(b1-4)GlcNAc(b1-3)GalNAc
How it was run: as §1

[6] = target: Neu5Ac(a2-3)[Neu5Ac(a2-6)]GalNAc
How it was run: as §1

Neu5Ac(a2-6)Gal = target: Neu5Ac(a2-6)Gal
How it was run: as §1

[7] = target: Neu5Ac(a2-6)Gal(b1-3)GlcNAc(b1-3)[Gal(b1-4)GlcNAc(b1-6)]Gal(b1-4)Glc
How it was run: as §1

Neu5Ac(a2-6)Gal(b1-4)Glc = target: Neu5Ac(a2-6)Gal(b1-4)Glc
How it was run: as §1

[8] = target: Neu5Ac(a2-6)Gal(b1-4)GlcNAc
How it was run: as §1

[9] = target: Neu5Ac(a2-6)Gal(b1-4)GlcNAc(b1-2)Man(a1-3)Man(b1-4)GlcNAc(b1-4)GlcNAc
How it was run: as §1

[10] = target: Neu5Ac(a2-6)Gal(b1-4)GlcNAc(b1-2)Man(a1-3)[Gal(b1-4)GlcNAc(b1-2)Man(a1-6)]Man(b1-4)GlcNAc(b1-4)GlcNAc
How it was run: as §1

[11] = target: Neu5Ac(a2-6)Gal(b1-4)GlcNAc(b1-2)Man(a1-3)[GlcNAc(b1-2)Man(a1-6)]Man(b1-4)GlcNAc(b1-4)GlcNAc
How it was run: as §1

[12] = target: Neu5Ac(a2-6)Gal(b1-4)GlcNAc(b1-2)Man(a1-3)[GlcNAc(b1-2)Man(b1-4)GlcNAc(b1-2)Man(a1-6)]Man(b1-4)GlcNAc(b1-4)GlcNAc
How it was run: as §1

[13] = target: Neu5Ac(a2-6)Gal(b1-4)GlcNAc(b1-2)Man(a1-3)[Man(a1-6)]Man(b1-4)GlcNAc(b1-4)GlcNAc
How it was run: as §1

[14] = target: Neu5Ac(a2-6)Gal(b1-4)GlcNAc(b1-2)Man(a1-3)[Neu5Ac(a2-6)Gal(b1-4)GlcNAc(b1-2)Man(a1-6)]Man(b1-4)GlcNAc(b1-4)GlcNAc
How it was run: as §1

[15] = target: Neu5Ac(a2-6)Gal(b1-4)GlcNAc(b1-2)Man(a1-3)[Neu5Ac(a2-6)Gal(b1-4)GlcNAc(b1-2)Man(a1-6)]Man(b1-4)GlcNAc(b1-4)[Fuc(a1-6)]GlcNAc
How it was run: as §1

[16] = target: Neu5Ac(a2-6)Gal(b1-4)GlcNAc(b1-2)Man(a1-6)Man(b1-4)GlcNAc(b1-4)GlcNAc
How it was run: as §1

[17] = target: Neu5Ac(a2-6)Gal(b1-4)GlcNAc(b1-2)Man(a1-6)[Gal(b1-4)GlcNAc(b1-2)Man(a1-3)]Man(b1-4)GlcNAc(b1-4)GlcNAc
How it was run: as §1

[18] = target: Neu5Ac(a2-6)Gal(b1-4)GlcNAc(b1-2)Man(a1-6)[GlcNAc(b1-2)Man(a1-3)]Man(b1-4)GlcNAc(b1-4)GlcNAc
How it was run: as §1

[19] = target: Neu5Ac(a2-6)Gal(b1-4)GlcNAc(b1-2)Man(a1-6)[Man(a1-3)]Man(b1-4)GlcNAc(b1-4)GlcNAc
How it was run: as §1

[20] = target: Neu5Ac(a2-6)Gal(b1-4)GlcNAc(b1-3)Gal(b1-3)GlcNAc
How it was run: as §1

[21] = target: Neu5Ac(a2-6)Gal(b1-4)GlcNAc(b1-3)Gal(b1-4)GlcNAc
How it was run: as §1

[22] = target: Neu5Ac(a2-6)Gal(b1-4)GlcNAc(b1-3)Gal(b1-4)GlcNAc(b1-3)Gal(b1-4)GlcNAc
How it was run: as §1

[23] = target: Neu5Ac(a2-6)Gal(b1-4)GlcNAc(b1-3)Gal(b1-4)[Fuc(a1-3)]GlcNAc(b1-3)Gal(b1-4)[Fuc(a1-3)]GlcNAc
How it was run: as §1

[24] = target: Neu5Ac(a2-6)Gal(b1-4)GlcNAc(b1-3)GalNAc
How it was run: as §1

[25] = target: Neu5Ac(a2-6)Gal(b1-4)GlcNAc(b1-3)[Neu5Ac(a2-6)Gal(b1-4)GlcNAc(b1-6)]GalNAc
How it was run: as §1

[26] = target: Neu5Ac(a2-6)Gal(b1-4)GlcNAc(b1-6)GalNAc
How it was run: as §1

B1: CCL1 (Coprinopsis cinerea) (protein)
chain: MDTQAKPPAGRYVIYNRVLSPNGEKLALTYPGYQREALTLTPLHHSANQIWILNNWDATTSSLTPETARNTQVGWGSGNVPIVLPPGNYVWTLASSAGGYIIQDGGKTVYWNAGEAVANTKVSIGGDNGLQARWIFERV
glycan array binding signal (z-score) [1]: 1.5 | glycan array binding signal (z-score) (Neu5Ac(a2-3)GalNAc): -0.174 | glycan array binding signal (z-score) [2]: -0.17 | glycan array binding signal (z-score) [3]: -0.154 | glycan array binding signal (z-score) [4]: -0.135 | glycan array binding signal (z-score) [5]: -0.079 | glycan array binding signal (z-score) [6]: -0.149 | glycan array binding signal (z-score) (Neu5Ac(a2-6)Gal): -0.15 | glycan array binding signal (z-score) [7]: -0.146 | glycan array binding signal (z-score) (Neu5Ac(a2-6)Gal(b1-4)Glc): -0.133 | glycan array binding signal (z-score) [8]: -0.124 | glycan array binding signal (z-score) [9]: -0.124 | glycan array binding signal (z-score) [10]: -0.138 | glycan array binding signal (z-score) [11]: -0.088 | glycan array binding signal (z-score) [12]: -0.137 | glycan array binding signal (z-score) [13]: -0.115 | glycan array binding signal (z-score) [14]: -0.124 | glycan array binding signal (z-score) [15]: -0.158 | glycan array binding signal (z-score) [16]: -0.132 | glycan array binding signal (z-score) [17]: -0.12 | glycan array binding signal (z-score) [18]: -0.149 | glycan array binding signal (z-score) [19]: -0.139 | glycan array binding signal (z-score) [20]: -0.147 | glycan array binding signal (z-score) [21]: -0.152 | glycan array binding signal (z-score) [22]: -0.147 | glycan array binding signal (z-score) [23]: 0.325 | glycan array binding signal (z-score) [24]: 0.034 | glycan array binding signal (z-score) [25]: -0.128 | glycan array binding signal (z-score) [26]: -0.1
